Test results as given in ChEMBL document CHEMBL4888484, “Replenishing the malaria drug discovery pipeline: Screening and hit evaluation of the MMV Hit Generation Library 1 (HGL1) against asexual blood stage Plasmodium falciparum ,using a nano luciferase reporter read-out” (2022).
Screen size: about 150,000 compounds; about 540 (0.36%) showed an effect of 50% or more. Some of the results follow.

Each compound was assayed on Plasmodium falciparum (assay: Primary screen in NF54 nanoGlo assay, in single point, at 2uM, 72h; a lower Z score goes with more inhibition). Conditions: timepoint 72 hour.
Format: functional, Erythrocyte

SMILES | % Inhibition [%] | Z score
CCn1ccc(=O)c(NC(=O)N[C@@H](C)CCC(C)C)c1 | -14 | 2.06
CCn1ccc(C(=O)N(C)CCc2noc(C(F)(F)F)n2)cc1=O | -8 | 1.29
O=S(=O)(NC1CCCCCC1)c1ccc2c(c1)OCCO2 | -7 | 1.05
COCc1nc(C)c(C(=O)N2CC[C@](C)(O)C2)s1 | -8 | 1.14
CCCn1nnnc1CNc1cc(F)cc(Br)c1 | -7 | 1.36
CCOC(C)c1nc(CN2CCCC2c2nccn2C)cs1 (stereo unspecified) | -4 | 0.61
Cn1ncc2c1CCCC2NC1C[C@@H]2CCCC[C@H]12 (stereo partly specified) | 4 | -0.49
CC1(c2nsc(NC(=O)CC3CCC(F)(F)CC3)n2)CC1 | -5 | 1.05
Cc1noc([C@H](C)NC(=O)Nc2nc3c(s2)CCC3(C)C)n1 | -8 | 1.1
CCCc1noc(CCC(=O)N[C@@H](C)CC)n1 | -1 | 0.13
CCn1cc(C(=O)Nc2nnc([C@H](C)OC)s2)cn1 | -4 | 0.74
CC(NC(=O)Cc1cccc(N)c1)C1CCN(Cc2ccccc2)C1 (stereo unspecified) | 5 | -0.97
c1cnc(-c2noc(C3CN(Cc4ccoc4)C3)n2)cn1 | -9 | 1.67
N#Cc1c([C@H]2CCOC2)cc(-c2ccc(Cl)cc2Cl)nc1N | -11 | 1.09
CCc1nc(-c2nn(C)cc2Cl)n(CCO)n1 | 2 | -0.28
CC1(C)CCCN1S(=O)(=O)c1onc(C2CC2)c1Cl | -3 | 0.41
COc1ccc(Cl)cc1[C@@H](O)CNC(=O)c1c(C2CCC2)cnn1C | 20 | -2.35
Cc1csc(CNC(=O)N[C@H]2COC[C@@H]2O)c1 | 14 | -1.8
c1cnc(N2CCN(Cc3cc(-c4ccncc4)no3)CC2)nc1 | -18 | 1.95
O=C1CN(CCc2ccccc2)CCN1 | -8 | 1.47
CC[C@H](C)n1nnc2cc(S(=O)(=O)N(C)CC(=O)NCCC(C)C)ccc21 | -13 | 1.19
O=C(Nc1nc2ccc(F)cn2n1)c1ncccc1Br | -8 | 1.01

SMILES | % Inhibition [%] | Z score
CC(=O)NCc1csc(C2CCN(S(=O)(=O)c3cccc(F)c3)CC2)n1 | 1 | -0.1
O=S1(=O)CCN(OCc2ccc(Cl)cc2)CC1 | 33 | -1.45
COc1cc(C)c(-c2nc(CN(C)Cc3nccs3)c(C)o2)cc1C | -8 | 1.18
CCn1cc(CNC(=O)c2cc(-c3cc(OC)ccc3OC)nc3ccccc23)cn1 | -8 | 1.02
CCN(CC)C(=O)CCc1ccnc(N(CC)CC)c1 | -14 | 1.51
Cc1ccc2c(C(=O)NC[C@]3(O)CCS(=O)(=O)C3)csc2c1 | -1 | 0.09
CCN(C)c1ccc(CNc2ccc3nnnn3n2)cc1F | -21 | 3.31
Cc1ccc(C(=O)Nc2ccc3c(c2)cc(C(=O)NCCN2CCOCC2)n3Cc2cccc(F)c2)cc1 | 4 | -0.49
Cc1noc(C)c1S(=O)(=O)NC[C@@](O)(c1ccccc1)C1CC1 | -2 | 0.26
C#CCCC1(CCC(=O)N2CCCC[C@H](CCOC)C2)N=N1 | -12 | 1.64
CC1CN(C2CCN(S(=O)(=O)c3ccc(F)cc3)CC2)CC(C)O1 (stereo unspecified) | 5 | -0.78
COc1ccc(NC(=O)[C@@H]2CC(=O)Nc3c(-c4ccccc4OC)cnn32)cc1Cl | -2 | 0.22
CCCCn1ncnc1C1(c2ccccc2F)CC1 | -12 | 1.52
COc1cccc(CN2CC(n3cc(C(=O)N(C)C)nn3)C2)c1 | -7 | 1.38
Cc1ccc(S(=O)(=O)N(CC(=O)N[C@@H]2C[C@H]3CC[C@@H]2C3)c2cccc(Br)c2)cc1 | -15 | 2.16
O=C(Nc1ccccc1)c1ccc(Cn2c(C(F)(F)F)nc3ccccc32)cc1 | -1 | 0.18
O=S(=O)(C1COC1)N1CC(C2CC2)C1C1CC1 (stereo unspecified) | -2 | 0.35
COc1ccc(CNC(=O)C(=O)NCc2cccnc2)cc1 | 6 | -0.8
CCCN1CCN(c2ncc3c(n2)CCN(Cc2ccccc2F)C3)CC1 | 2 | -0.33
CCOC(=O)Cn1nc(C)c(NC(=O)c2cnccn2)c1C | 30 | -3.35
CC(C)c1nn(C)c2nc(-c3cccc(OCC(N)=O)c3)[nH]c12 | -6 | 0.53
COc1ccnc(CNC(=O)c2cccc(S(=O)(=O)N3CC(O)C3)c2)c1 | -6 | 0.8

SMILES | % Inhibition [%] | Z score
Cn1cc(CNC(=O)[C@H]2CCC(=O)N(C3CCCCCC3)C2)cn1 | -14 | 1.97
O=C(c1cnc2ccc(F)cc2c1N1CCN(c2ccccn2)CC1)N1CCCC1 | 28 | -0.08
Cc1ccc(Cc2c(C)nn(-c3nc(C)c(C(=O)Nc4ccccc4F)s3)c2C)cc1 | -20 | 1.73
CC(C)[C@H](NC(=O)N1CCC(n2cc(C(N)=O)nn2)CC1)C1CC1 | 1 | -0.12
O=C(CN1C(=O)OC[C@@H]1c1ccccc1)N(Cc1nccs1)C1CC1 | -1 | 0.11
Cn1ccc2c(CN3CCN4CCNC(=O)[C@@H]4C3)cccc21 | -18 | 3.4
O=C(c1cnc2[nH]nnc2c1)N1CCC(F)(F)C1 | -5 | 0.73
Cc1nn([C@@H](C)C(=O)NC(C)C)cc1Br | 2 | -0.23
CCc1c(O)nc(N2CCOCC2)[nH]c1=O | -6 | 0.79
Cc1oncc1CNC(=O)Cc1ccc(F)cc1 | -10 | 1.56
CC[C@H](C)N(CCO)c1ncc(Br)cn1 | 2 | -0.22
Cc1ccc(C)c(CC(=O)N2CCO[C@H](c3nc(C)cs3)C2)c1 | 1 | -0.27
N[C@H]1CCCN(C(=O)c2ccc3[nH]ncc3c2)C1 | 6 | -0.72
Cc1cc(C)n(CC2(CNC(=O)CCc3csc(N)n3)CC2)n1 | 4 | -0.73
O=C(Nc1ccccc1Cl)N1C2CCC1CC(Oc1ccccn1)C2 (stereo unspecified) | -15 | 1.91
CN(CCCc1cnn(C)c1)c1cc(N2CCOCC2)ncn1 | 0 | 0.04
CC(C)c1nc(C(=O)N[C@@H](C)c2ncon2)cs1 | -5 | 0.63
Cc1cn2c(n1)CC[C@H](NCc1c(C(C)C)nn(C)c1N1CCOCC1)C2 | -5 | 0.66
O=S(=O)(C1COC1)N1CC[C@H]1C1CC1 | -8 | 1.31
CC(C)C(=O)N1CCc2cc(CNC(=O)c3cccnc3)ccc21 | -12 | 1.06
COCCc1noc(C2CN(S(=O)(=O)c3cccc(OC)c3)C2)n1 | -6 | 0.74
C[C@@H](CNc1nccn(-c2ccc3c(c2)OCCO3)c1=O)c1ccccc1 | 1 | -0.16

SMILES | % Inhibition [%] | Z score
COc1ccc(-c2csc(-c3nc(-c4cccc(Cl)c4)cs3)n2)cc1 | -13 | 1.47
C[C@@H](C(=O)O)N1CCN(c2ccnc(N(C)C)n2)CC1 | -3 | 0.4
CCCN(CC(=O)O)C(=O)Cc1ccc(C)cc1 | -8 | 1.41
C[C@H]1Cc2cc(Br)cc3c(=O)c(C(=O)NCCc4ccccc4)cn1c23 | -2 | 0.38
c1ccc(-n2ncc3c2N=C(N2CCCCCCC2)NC3)cc1 | -3 | 0.43
Cc1ccc(C)c(CN2CCCN(c3ccc(C)cc3NC(=O)c3cccs3)C2=O)c1 | -17 | 2.85
CC1CCN(C(=O)Cn2nnc([C@@]3(C(F)(F)F)CCCN3)n2)CC1 | -6 | 0.58
CCCCc1nc(CN2CCNC(=O)[C@@H]2CC)no1 | -9 | 0.94
COc1cc(N(C)CC2(CO)CCOCC2)ncn1 | 0 | 0.04
COCCN(CC(=O)OC)Cc1cc(C)no1 | 3 | -0.41
COc1ccc(-c2ccc(N3CCCN(C(=O)CN(C(=O)C4CCC4)C4CC4)CC3)nn2)cc1OC | -5 | 0.83
CC(C)c1cc([C@@H]2CCCN2S(=O)(=O)c2ccc(Cl)s2)on1 | -5 | 0.97
CCOc1ccc(S(=O)(=O)N2CCC(Oc3cc(C)n(C)c(=O)c3)CC2)cc1F | -5 | 0.9
CCCCN(C)c1ccc(C(F)(F)F)cc1C(=O)O | -23 | 2.66
Cc1cncc(-c2c(C(F)(F)F)nn(C)c2C)c1 | 8 | -1.47
CC(C)n1ncnc1CNC(=O)c1ccn(CCc2ccccc2)n1 | -11 | 1.93
CCc1cc(C(=O)N2CCC[C@H](C)C2)c2c(C)noc2n1 | -1 | 0.13
COCCN(CC(C)C)c1ncns1 | -3 | 0.51
COc1ccc(OC)c(CN(Cc2nc(C(=O)NCc3ccc4c(c3)OCO4)co2)C(C)C)c1 | -1 | 0.07
CCOC1CC(c2nc(Cc3cc(Cl)ccc3Cl)no2)C1 (stereo unspecified) | -9 | 1.55
Cc1ccc(-n2cc(-c3ccccc3)nc2NC(=O)CN(C(=O)Cc2ccccc2)C(C)C)cc1C | -3 | 0.67
COc1cccc2c1OC[C@@H](C(=O)N1CCN(c3ccccn3)CC1)C2 | 17 | -2.2
